From the supplement of paper PMC12217912
This is one part of the list. Sequences were assembled here from the parent chain. Inactive controls read about 0.05.

B1: TEV protease; numbered along this chain (parent)
chain: MGESLFKGPRDYNPISSSICHLTNESDGHTTSLYGIGFGPFIITNKHLFRRNNGTLVVQSLHGVFKVKDTTTLQQHLVDGRDMIIIRMPKDFPPFPQKLKFREPQREERICLVTTNFQTKSMSSMVSDTSCTFPSGDGIFWKHWIQTKDGQCGSPLVSTRDGFIVGIHSASNFTNTNNYFTSVPKNFMELLTNQEAQQWVSGWRLNADSVLWGGHKVFMVKPEEPFQPVKEATQL

Variants of: B1
Test: raw area under fraction-flipped curve 0-4 h after induction (AUC4h, not background-subtracted), DNA-recorder readout of cleavage of the substrate (dimensionless); higher = more cleavage of the substrate by the protease variant
Conditions: temperature: 34 °C; time window: 0-4 h after rhamnose induction
Procedure: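 In vivo DNA recorder in E. coli TOP10(DE3) ΔrhaA at 34 °C. Each TEVp single-site mutant (parent TEVp 0) is paired with a single-site variant of the 7-mer TEVs (canonical ENLYFQ|S). The substrate sits between flexible linkers in a Bxb1-sfGFP-TEVs-SsrA fusion, so cleavage stabilises Bxb1 and speeds flipping of a recombination array, read by NGS. The value is the raw area under the fraction-flipped curve over 0-4 h after rhamnose induction (AUC4h), with ≥20 reads per time point. It is not background-subtracted; inactive controls average about 0.047.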
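Further: Bxb1 expression induced with 0.2% (w/v) L-rhamnose at OD600 near 0.5, cultures sampled hourly, flipped fraction per protease–substrate barcode pair counted by paired-end Illumina sequencing.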

Variant	area with substrate ECLYFQS	area with substrate EFLYFQS	area with substrate EILYFQS	area with substrate EKLYFQS	area with substrate EMLYFQS	area with substrate EQLYFQS	area with substrate ERLYFQS	area with substrate ESLYFQS	area with substrate EELYFQS	area with substrate ETLYFQS	area with substrate EVLYFQS	area with substrate EHLYFQS	area with substrate ELLYFQS	area with substrate EWLYFQS	area with substrate EDLYFQS	area with substrate EGLYFQS	area with substrate EPLYFQS	area with substrate EYLYFQS
MGESLFKGPRDYNPISSSICHLTNESDGHTTSLYGIGFGPFIITNKHLFRRNNGTLVVQSLHGVFKVKDTTTLQQHLVDGRDMIIIRMPKDFPPFPQKLKFREPQREERICLVTHNFQTKSMSSMVSDTSCTFPSGDGIFWKHWIQTKDGQCGSPLVSTRDGFIVGIHSASNFTNTNNYFTSVPKNFMELLTNQEAQQWVSGWRLNADSVLWGGHKVFMVKPEEPFQPVKEATQL [T115H]	0.103	0.0658	0.0979	0.1	0.114	0.121	0.103	0.0912										
MGESLFKGPRDYNPISSSICHLTNESDGHTTSLYGIGFGPFIITNKHLFRRNNGTLVVQSLHGVFKVKDTTTLQQHLVDGRDMIIIRMPKDFPPFPQKLKFREPQREERIELVTTNFQTKSMSSMVSDTSCTFPSGDGIFWKHWIQTKDGQCGSPLVSTRDGFIVGIHSASNFTNTNNYFTSVPKNFMELLTNQEAQQWVSGWRLNADSVLWGGHKVFMVKPEEPFQPVKEATQL [C111E]	0.1			0.0958	0.115	0.093	0.0908		0.0939	0.0836	0.0754							
MGESLFKGPRDYNPISSSICHLTNESDGHTTSLYGIGFGPFIITNKHLFRRNNGTLVVQSLHGVFKVKDTTTLQQHLVDGRDMIIIRMPKDFPPFPQKLKFREPQREERIQLVTTNFQTKSMSSMVSDTSCTFPSGDGIFWKHWIQTKDGQCGSPLVSTRDGFIVGIHSASNFTNTNNYFTSVPKNFMELLTNQEAQQWVSGWRLNADSVLWGGHKVFMVKPEEPFQPVKEATQL [C111Q]	0.0949					0.136	0.0963	0.0996			0.12	0.0974	0.103	0.0946				
MGESLFKGPRDYNPISSSICHLTNESDGHTTSLYGIGFGPFIITNKHLFRRNNGTLVVQSLHGVFKVKDTTTLQQHLVDGRDMIIIRMPKDFPPFPQKLKFREPQREERICLVTTNFQTKNMSSMVSDTSCTFPSGDGIFWKHWIQTKDGQCGSPLVSTRDGFIVGIHSASNFTNTNNYFTSVPKNFMELLTNQEAQQWVSGWRLNADSVLWGGHKVFMVKPEEPFQPVKEATQL [S121N]	0.0895		0.131	0.0912	0.119	0.127		0.112				0.108			0.127	0.103	0.138	
MGESLFKGPRDYNPISSSICHLTNESDGHTTSLYGIGFGPFIITNKHLFRRNNGTLVVQSLHGVFKVKDTTTLQQHLVDGRDMIIIRMPKDFPPFPQKLKFREPQRTERICLVTTNFQTKSMSSMVSDTSCTFPSGDGIFWKHWIQTKDGQCGSPLVSTRDGFIVGIHSASNFTNTNNYFTSVPKNFMELLTNQEAQQWVSGWRLNADSVLWGGHKVFMVKPEEPFQPVKEATQL [E107T]	0.124							0.105			0.11	0.107	0.0903					
MGESLFKGPRDYNPISSSICHLTNESDGHTTSLYGIGFGPFIITNKHLFRRNNGTLVVQSLHGVFKVKDTTTLQQHLVDGRDMIIIRMPKDFPPFPQKLKFREPQREERICLVSTNFQTKSMSSMVSDTSCTFPSGDGIFWKHWIQTKDGQCGSPLVSTRDGFIVGIHSASNFTNTNNYFTSVPKNFMELLTNQEAQQWVSGWRLNADSVLWGGHKVFMVKPEEPFQPVKEATQL [T114S]	0.0795				0.166	0.111	0.112				0.0922	0.132	0.0881	0.131	0.109	0.111		0.112
MGESLFKGPRDYNPISSSICHLTNESDGHTTSLYGIGFGPFIITNKHLFRRNNGTLVVQSLHGVFKVKDTTTLQQHLVDGRDMIIIRMPKDFPPFPQKLKGREPQREERICLVTTNFQTKSMSSMVSDTSCTFPSGDGIFWKHWIQTKDGQCGSPLVSTRDGFIVGIHSASNFTNTNNYFTSVPKNFMELLTNQEAQQWVSGWRLNADSVLWGGHKVFMVKPEEPFQPVKEATQL [F101G]	0.0547	0.0506	0.0453	0.0477		0.0629	0.06	0.0522				0.0483						0.0425
MGESLFKGPRDYNPISSSICHLTNESDGHTTSLYGIGFGPFIITNKHLFRRNNGTLVVQSLHGVFKVKDTTTLQQHLVDGRDMIIIRMPKDFPPFPQKLKMREPQREERICLVTTNFQTKSMSSMVSDTSCTFPSGDGIFWKHWIQTKDGQCGSPLVSTRDGFIVGIHSASNFTNTNNYFTSVPKNFMELLTNQEAQQWVSGWRLNADSVLWGGHKVFMVKPEEPFQPVKEATQL [F101M]	0.089	0.12	0.0845	0.0767		0.0953	0.088	0.0935		0.11	0.0734		0.0729			0.0816	0.104	
MGESLFKGPRDYNPISSSICHLTNESDGHTTSLYGIGFGPFIITNKHLFRRNNGTLVVQSLHGVFKVKDTTTLQQHLVDGRDMIIIRMPKDFPPFPQKLKPREPQREERICLVTTNFQTKSMSSMVSDTSCTFPSGDGIFWKHWIQTKDGQCGSPLVSTRDGFIVGIHSASNFTNTNNYFTSVPKNFMELLTNQEAQQWVSGWRLNADSVLWGGHKVFMVKPEEPFQPVKEATQL [F101P]	0.0392		0.046	0.0362		0.0449	0.0497	0.0523		0.0532	0.0405		0.0638	0.0665	0.06	0.049		
MGESLFKGPRDYNPISSSICHLTNESDGHTTSLYGIGFGPFIITNKHLFRRNNGTLVVQSLHGVFKVKDTTTLQQHLVDGRDMIIIRMPKDFPPFPQKLKFREPQREERWCLVTTNFQTKSMSSMVSDTSCTFPSGDGIFWKHWIQTKDGQCGSPLVSTRDGFIVGIHSASNFTNTNNYFTSVPKNFMELLTNQEAQQWVSGWRLNADSVLWGGHKVFMVKPEEPFQPVKEATQL [I110W]	0.0563		0.0569	0.0665				0.0578		0.0472	0.0612							0.0534
MGESLFKGPRDYNPISSSICHLTNESDGHTTSLYGIGFGPFIITNKHLFRRNNGTLVVQSLHGVFKVKDTTTLQQHLVDGRDMIIIRMPKDFPPFPQKTKFREPQREERICLVTTNFQTKSMSSMVSDTSCTFPSGDGIFWKHWIQTKDGQCGSPLVSTRDGFIVGIHSASNFTNTNNYFTSVPKNFMELLTNQEAQQWVSGWRLNADSVLWGGHKVFMVKPEEPFQPVKEATQL [L99T]	0.103							0.146	0.155			0.104		0.0917			0.104	
MGESLFKGPRDYNPISSSICHLTNESDGHTTSLYGIGFGPFIITNKHLFRRNNGTLVVQSLHGVFKVKDTTTLQQHLVDGRDMIIIRMPKDFPPFPQKLKFREPQREERICLVTTNFQTKSMSSMVSDTACTFPSGDGIFWKHWIQTKDGQCGSPLVSTRDGFIVGIHSASNFTNTNNYFTSVPKNFMELLTNQEAQQWVSGWRLNADSVLWGGHKVFMVKPEEPFQPVKEATQL [S130A]	0.0874		0.0461	0.0492		0.122		0.0897			0.0899	0.0548	0.0782		0.141	0.0519	0.11	
MGESLFKGPRDYNPISSSICHLTNESDGHTTSLYGIGFGPFIITNKHLFRRNNGTLVVQSLHGVFKVKDTTTLQQHLVDGRDMIIIRMPKDFPPFPQKLKFREPQREERICLVTTNFQTKSMSSMKSDTSCTFPSGDGIFWKHWIQTKDGQCGSPLVSTRDGFIVGIHSASNFTNTNNYFTSVPKNFMELLTNQEAQQWVSGWRLNADSVLWGGHKVFMVKPEEPFQPVKEATQL [V126K]	0.116		0.104		0.134	0.0976		0.0929	0.121		0.0963		0.107	0.0805			0.116	
MGESLFKGPRDYNPISSSICHLTNESDGHTTSLYGIGFGPFIITNKHLFRRNNGTLVVQSLHGVFKVKDTTTLQQHLVDGRDMIIIRMPKDFPPFPQKLKFREPQREKRICLVTTNFQTKSMSSMVSDTSCTFPSGDGIFWKHWIQTKDGQCGSPLVSTRDGFIVGIHSASNFTNTNNYFTSVPKNFMELLTNQEAQQWVSGWRLNADSVLWGGHKVFMVKPEEPFQPVKEATQL [E108K]	0.0501		0.0586	0.0755		0.0732	0.0586	0.0958			0.0761	0.0569	0.0557	0.0578			0.0724	
MGESLFKGPRDYNPISSSICHLTNESDGHTTSLYGIGFGPFIITNKHLFRRNNGTLVVQSLHGVFKVKDTTTLQQHLVDGRDMIIIRMPKDFPPFPQKLKFREPQREERICLVTTNFQTKSMLSMVSDTSCTFPSGDGIFWKHWIQTKDGQCGSPLVSTRDGFIVGIHSASNFTNTNNYFTSVPKNFMELLTNQEAQQWVSGWRLNADSVLWGGHKVFMVKPEEPFQPVKEATQL [S123L]	0.0952		0.094	0.106	0.105	0.115	0.0896	0.107		0.121	0.0935		0.117					0.0925
MGESLFKGPRDYNPISSSICHLTNESDGHTTSLYGIGFGPFIITNKHLFRRNNGTLVVQSLHGVFKVKDTTTLQQHLVDGRDMIIIRMPKDFPPFPQKLKFREPQREESICLVTTNFQTKSMSSMVSDTSCTFPSGDGIFWKHWIQTKDGQCGSPLVSTRDGFIVGIHSASNFTNTNNYFTSVPKNFMELLTNQEAQQWVSGWRLNADSVLWGGHKVFMVKPEEPFQPVKEATQL [R109S]	0.0859	0.0932	0.093	0.0978			0.0991	0.0903	0.117				0.0563				0.111	0.141
MGESLFKGPRDYNPISSSICHLTNESDGHTTSLYGIGFGPFIITNKHLFRRNNGTLVVQSLHGVFKVKDTTTLQQHLVDGRDMIIIRMPKDFPPFPQKLKFREPQREENICLVTTNFQTKSMSSMVSDTSCTFPSGDGIFWKHWIQTKDGQCGSPLVSTRDGFIVGIHSASNFTNTNNYFTSVPKNFMELLTNQEAQQWVSGWRLNADSVLWGGHKVFMVKPEEPFQPVKEATQL [R109N]	0.0824						0.086	0.0906	0.122	0.0994						0.0957		0.0866
MGESLFKGPRDYNPISSSICHLTNESDGHTTSLYGIGFGPFIITNKHLFRRNNGTLVVQSLHGVFKVKDTTTLQQHLVDGRDMIIIRMPKDFPPFPQKLKFREPQREEAICLVTTNFQTKSMSSMVSDTSCTFPSGDGIFWKHWIQTKDGQCGSPLVSTRDGFIVGIHSASNFTNTNNYFTSVPKNFMELLTNQEAQQWVSGWRLNADSVLWGGHKVFMVKPEEPFQPVKEATQL [R109A]	0.0988	0.113		0.0924	0.0973	0.162	0.0902	0.107		0.104			0.119				0.163	
MGESLFKGPRDYNPISSSICHLTNESDGHTTSLYGIGFGPFIITNKHLFRRNNGTLVVQSLHGVFKVKDTTTLQQHLVDGRDMIIIRMPKDFPPFPQKLPFREPQREERICLVTTNFQTKSMSSMVSDTSCTFPSGDGIFWKHWIQTKDGQCGSPLVSTRDGFIVGIHSASNFTNTNNYFTSVPKNFMELLTNQEAQQWVSGWRLNADSVLWGGHKVFMVKPEEPFQPVKEATQL [K100P]	0.091	0.0902	0.101	0.101	0.105			0.113		0.118			0.0828	0.0887	0.138	0.0783		0.144
MGESLFKGPRDYNPISSSICHLTNESDGHTTSLYGIGFGPFIITNKHLFRRNNGTLVVQSLHGVFKVKDTTTLQQHLVDGRDMIIIRMPKDFPPEPQKLKFREPQREERICLVTTNFQTKSMSSMVSDTSCTFPSGDGIFWKHWIQTKDGQCGSPLVSTRDGFIVGIHSASNFTNTNNYFTSVPKNFMELLTNQEAQQWVSGWRLNADSVLWGGHKVFMVKPEEPFQPVKEATQL [F95E]	0.0664	0.0562	0.0507	0.0484	0.0571		0.0552	0.0599	0.0642		0.0504	0.0392	0.0502		0.0449			
